Laboratory results reported in the supplement of paper PMC11417369.
± gives the standard deviation of the averaged measurements. The list shows a part of the results.

These sequences were tested on PfAP2-EXP AP2 domain (GST-tagged) (assay: gcPBM binding intensity (ln(normalized median fluorescence intensity)); higher = stronger DNA binding).
Outline: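 Binding intensity values are the highest Masliner-normalised natural-log median intensity among replicate spots of either probe orientation. The binding step lasted 1 h in 1× PBS with 1% milk, 0.2 mg/ml BSA, 0.5% salmon testes DNA and 0.03% Triton X-100, using GST-tagged P. falciparum DNA-binding domains expressed in E. coli on an Agilent 4 × 180k array of primer-extended double-stranded 36-bp intergenic genomic probes plus negative controls. Alexa488 anti-GST antibody and a 488 nm scan detected bound protein.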

Q: With “TTTAAAAAAAAAAAAAATTTTTTTTTTTTTTTTTTA [CACACA_negctrl_site1415]” as the sequence, how does the “gcPBM binding intensity (ln)” value read?
A: 7.83 ± 0.44

Q: With “AAAAAAAAAAAACATACACACACACTAATATTTATA [CACACA_site8038]” as the sequence, how does the “gcPBM binding intensity (ln)” value read?
A: 8.39 ± 0.57

Q: With “GACTTTTTCATTTTTAGTACACATATATATTTCCCT [XGTACX_site3511]” as the sequence, how does the “gcPBM binding intensity (ln)” value read?
A: 9.38 ± 0.32

Q: “TTAAAAAATCACAACACACACACACCCAAAAAAAAA [CACACA_site1445]” was tested. Which “gcPBM binding intensity (ln)” value did it give?
A: 8.64 ± 0.5

Q: For “ATATATTTTTAATATGCACACAAGAATACATTCACA [CACACA_site914]”, which “gcPBM binding intensity (ln)” value is on record?
A: 8.67 ± 0.18

Q: With “TTTTAAAAAATATAATAATATAAATATTTTATACGT [TGCATGCA_negctrl_site252]” as the sequence, how does the “gcPBM binding intensity (ln)” value read?
A: 8.11 ± 0.4

Q: For “AACATATAAAAATATGCACACACAGGAATACAAACA [CACACA_site8127]”, which “gcPBM binding intensity (ln)” value is on record?
A: 9.07 ± 0.44

Q: With “TTCTGTATACGGTGTGCACACAATTAAAAAAAAAAA [CACACA_site1416]” as the sequence, how does the “gcPBM binding intensity (ln)” value read?
A: 8.79 ± 0.042

Q: Which “gcPBM binding intensity (ln)” value does the source give for “TTAAATAACCTCAAGGATAAGAAAAAATTAAAAATT [CACACA_negctrl_site1336]” here?
A: 8.28 ± 0.42

Q: How did the “gcPBM binding intensity (ln)” value turn out when “CTATTTAAAATTTGAACACACATTATTTATTTTAAA [CACACA_site3114]” was run?
A: 8.3 ± 0.45

Q: “GAAATAATAAAATCGACACACAAAAAAAAAAAAAAA [CACACA_site3476]” was tested. Which “gcPBM binding intensity (ln)” value did it give?
A: 8.2 ± 0.62

Q: CTTTATATATATTGCGTGCACATTTTTTTTTTTTTT was tested. Which “gcPBM binding intensity (ln)” value did it give?
A: 9.01 ± 0.35

Q: For “TCAATATATATAAGAAGTACATGTGAATGAAAAAAA [XGTACX_site1674]”, which “gcPBM binding intensity (ln)” value is on record?
A: 9.14 ± 0.67

Q: “AATAAATACAAAAATGTACACACATATATATATTTT [CACACA_site9167]” was tested. Which “gcPBM binding intensity (ln)” value did it give?
A: 8.39 ± 0.37

Q: For “TTGTAACAAAAGTACACACACATTTCTATAAATTTT [CACACA_site2772]”, which “gcPBM binding intensity (ln)” value is on record?
A: 8.51 ± 0.19

Q: For CATTTTATTTTCTTTGTGCACAAAAATATTTTTTCT, which “gcPBM binding intensity (ln)” value is on record?
A: 9.35 ± 0.13

Q: How did the “gcPBM binding intensity (ln)” value turn out when “GGATTTTACCATAGCACACATATATGAATATTTTTC [CACACA_site1814]” was run?
A: 8.68 ± 0.26

Q: For “TTTATATACTATCAACGTACAAAAGTAATAAAAATA [XGTACX_site4343]”, which “gcPBM binding intensity (ln)” value is on record?
A: 8.71 ± 0.48

Q: For “TGTTCTAATTTTAATTGTACATATATACATATATAT [XGTACX_site7290]”, which “gcPBM binding intensity (ln)” value is on record?
A: 8.46 ± 0.35

Q: For “AAAGTTATGATATATACACACATATAAATATTAAAT [CACACA_site6361]”, which “gcPBM binding intensity (ln)” value is on record?
A: 8.51 ± 0.38

Q: Which “gcPBM binding intensity (ln)” value does the source give for “GTAAATATATATATATATATATATATATATATATAT [GTGCAC_negctrl_site239]” here?
A: 10.1 ± 0.34

Q: With “TTATACCTATATTTAACACACATTTGATAAAGTGCC [CACACA_site6732]” as the sequence, how does the “gcPBM binding intensity (ln)” value read?
A: 8.3 ± 0.27

Q: Which “gcPBM binding intensity (ln)” value does the source give for “TTGTAGGTAAATATGTGTACGCATTATTATTCTTAA [XGTACX_site216]” here?
A: 8.55 ± 0.24

Q: “AAAAAATTTGTTTATTGTACAGAAAGAATTATTATA [XGTACX_site6549]” was tested. Which “gcPBM binding intensity (ln)” value did it give?
A: 8.37 ± 0.39

Q: For “GAGAGAGAAATAAAAAGTACATACATATATATACAT [XGTACX_site2267]”, which “gcPBM binding intensity (ln)” value is on record?
A: 8.49 ± 0.4
